Among all 310,000 compounds or so, about 14,000 (4.5%) showed an effect of 50% or more. The effect is printed as a negative number. Some of the results follow.
Target: human ether-à-go-go-related gene (hERG) potassium channel (human, UniProt Q12809)
Experiment: primary screen, population patch clamp on CHO cells stably expressing hERG
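Further: peak tail current of the secondary pulse compared with the same well before compound.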

Sequence of human ether-à-go-go-related gene (hERG) potassium channel (Q12809 whole entry, looked up): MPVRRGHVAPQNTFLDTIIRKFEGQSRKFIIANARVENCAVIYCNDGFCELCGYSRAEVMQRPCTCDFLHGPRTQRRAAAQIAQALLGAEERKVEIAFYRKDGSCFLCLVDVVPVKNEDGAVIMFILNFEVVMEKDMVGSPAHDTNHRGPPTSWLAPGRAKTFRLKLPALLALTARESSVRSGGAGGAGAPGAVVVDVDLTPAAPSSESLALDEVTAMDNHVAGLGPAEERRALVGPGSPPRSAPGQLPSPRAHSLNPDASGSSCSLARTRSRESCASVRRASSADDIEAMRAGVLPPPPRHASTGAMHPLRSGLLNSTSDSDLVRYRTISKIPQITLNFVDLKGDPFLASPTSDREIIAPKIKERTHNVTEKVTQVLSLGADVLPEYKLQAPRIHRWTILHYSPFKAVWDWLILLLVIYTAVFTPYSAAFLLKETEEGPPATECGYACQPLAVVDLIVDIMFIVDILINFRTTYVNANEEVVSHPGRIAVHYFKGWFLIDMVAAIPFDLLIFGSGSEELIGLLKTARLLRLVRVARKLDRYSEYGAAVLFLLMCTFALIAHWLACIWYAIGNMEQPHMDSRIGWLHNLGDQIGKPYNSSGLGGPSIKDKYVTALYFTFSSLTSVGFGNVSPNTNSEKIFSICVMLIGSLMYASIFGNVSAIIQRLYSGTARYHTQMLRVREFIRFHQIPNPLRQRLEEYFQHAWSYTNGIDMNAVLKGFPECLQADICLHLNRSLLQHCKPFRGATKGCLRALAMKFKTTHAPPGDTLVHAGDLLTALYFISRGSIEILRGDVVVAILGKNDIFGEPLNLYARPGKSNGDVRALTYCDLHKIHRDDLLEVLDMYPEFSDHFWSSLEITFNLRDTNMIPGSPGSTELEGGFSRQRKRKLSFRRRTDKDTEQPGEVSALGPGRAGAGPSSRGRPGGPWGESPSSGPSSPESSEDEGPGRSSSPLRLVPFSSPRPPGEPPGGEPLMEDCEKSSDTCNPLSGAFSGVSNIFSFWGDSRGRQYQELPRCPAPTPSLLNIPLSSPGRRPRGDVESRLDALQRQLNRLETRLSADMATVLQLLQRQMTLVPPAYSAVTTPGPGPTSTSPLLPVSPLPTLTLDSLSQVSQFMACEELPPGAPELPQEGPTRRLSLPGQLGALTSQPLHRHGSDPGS

Compound	hERG current change (%, negative = inhibition) at 10uM
CC(C)OC(=O)c1c(NC(=O)Cn2cnc([N+](=O)[O-])n2)sc2c1CCCC2	12%
Cc1ccc(S(=O)(=O)N(C)S(=O)(=O)c2ccc(C#N)cc2)cc1	-27.4%
CCOC(=O)COn1c(=O)c(C)[n+]([O-])c2ccccc21	9.57%
Cc1cc(NC(=O)Nc2cc(F)ccc2F)no1	17.7%
CCN1CCN(C(c2cccs2)C(C)NC(=S)NC2CCCCC2)CC1 (centres unmarked)	-60.8%
O=C(CS(=O)(=O)c1ccccc1)Nc1ccc(Br)cn1	-19.8%
COCCn1c(N)c(C(=O)NCC2CCCO2)c2nc3ccccc3nc21 (centres unmarked)	-7.66%
Fc1ccc(C[n+]2csc3ccccc32)cc1.[Br-]	17.6%
S=C1NCN(Cc2ccco2)CN1Cc1ccco1	10.4%
c1ccc(-c2cc(-c3nnc4sc(-c5ccccn5)nn34)[nH]n2)cc1	1.59%
COc1cc(-c2nnc(SCC(=O)c3cc(C)n(CC4CCCO4)c3C)o2)cc(OC)c1OC (centres unmarked)	-2.38%
O=C(C[n+]1ccccc1)N/N=C/c1ccccc1Cl.[Cl-]	12.9%
CCn1c(NC(=O)c2ccc(COc3ccc(C)cc3[N+](=O)[O-])o2)nc2ccccc21	-1.65%
COc1ccc(C(N)=S)c(OC)c1	2.88%
CC(C)(C)C(=O)Nc1ccc2c(c1)-c1cc(NC(=O)C(C)(C)C)ccc1C2	16.9%
CC(OC(=O)c1cc(O)c2ccccc2c1O)C(=O)Nc1ccc(C(N)=O)cc1 (centres unmarked)	6.31%
CCc1nnc(NC(=O)CCC(=O)N2CCCC(O)C2)s1 (centres unmarked)	16.9%
O=c1c2ccccc2nnn1CSc1nnc(-c2cccs2)n1Cc1ccccc1	-62.6%
CCOC(=O)c1[nH]c2cc3c(cc2c1NC(=O)CN1CCc2ccccc2C1)OCO3	-0.934%
Cc1c(C(=O)NC2CCN(Cc3ccccc3)C2)oc2c(Cl)cccc12 (centres unmarked)	-71.8%
Cc1ccccc1NC(=O)Cc1nnc(SCC(=O)N2CCOCC2)n1C	0.542%
CC(=O)N1CCN(C(=O)CCN(c2ccccc2)S(=O)(=O)c2ccc(C)cc2)CC1	-28.5%
COc1ccc(/C=C/C(=O)NC(=S)N2CCCCC2)cc1OC	18.5%

Compound	hERG current change (%, negative = inhibition) at 10uM
CC(C)(C)C(=O)NC1CC2CCCC(C1)N2C(=O)Nc1ccccc1Cl (centres unmarked)	25.1%
O=C(O)c1ccccc1SCc1cn2cc(Cl)ccc2n1	24.4%
CCN(CC(=O)Nc1c(F)cccc1F)C(=O)CCOc1ccccc1	5.44%
CCOc1ccccc1C(=O)Nc1ccc(C(=O)c2ccccc2)cc1	14.7%
COc1cccc2cc(-c3n[nH]c(=S)n3C)oc12	11.6%
COc1cccc(N2C(=O)CC(N3CCc4ccccc43)C2=O)c1 (centres unmarked)	13.5%
CN1C(=O)NC(NC(=O)c2ccncc2)(C(F)(F)F)C1=O (centres unmarked)	22%
CC(C)C(=O)Nc1cc(-c2nc3ncccc3o2)ccc1Cl	10.3%
Cc1cc(C)c(-n2nnnc2SCC(=O)c2cccs2)c(C)c1	16.4%
Cc1ccc(NC(=O)Cn2c(O)c(N=NC(=O)c3cc4ccccc4cc3O)c3ccccc32)cc1	5.36%
CCOC(=O)c1cc(-c2ccc(Cl)cc2)nc2c1c(=O)[nH]c(=O)n2CCOC	-28.3%
CC(=O)c1ccc(N2CCN(C(=O)c3ccc4c(=O)n(-c5ccccc5)c(=O)[nH]c4c3)CC2)cc1	7.56%
C/C(=N\NC(=S)NCCc1ccccc1)c1ccc(Cl)cc1Cl	4.41%
CCOC(=O)N1CCN(C(=O)COc2cccc3c2CCN(Cc2ccccc2C)C3=O)CC1	-40.7%
CCN1CCN(C(=O)c2ccc(S(=O)(=O)Nc3ccccc3)cc2)CC1.Cl	12.7%
Cc1ccc(C)n1-c1ccc2c(c1)COC2=O	-8.86%
O=C(CN1CCCC1)Nc1c(C(=O)C2CC2)oc2ccccc12	-9.92%
COc1ccc(Cn2nnnc2C(c2ccncc2)N2CCOCC2)cc1 (centres unmarked)	-20.7%
O=C(NCC1COc2ccccc2O1)c1ccc(NC(=O)C(c2ccccc2)c2ccccc2)cc1 (centres unmarked)	14%
COC(=O)c1cn(NC(=O)C2COc3ccccc3O2)c(=O)c2ccccc12 (centres unmarked)	15%
CC(C)CC(NC(=O)C1CCC(C)CC1)C(=O)Nc1ccc2c(c1)OCCO2 (centres unmarked)	3.49%
O=C(NCCC(=O)N1CCN(c2ccccc2O)CC1)c1ccc(Br)cc1	-13.3%
O=C(c1ccc(Cl)c(Cl)c1)N1CCC(O)(CN2CCOCC2)CC1	-9.37%

Compound	hERG current change (%, negative = inhibition) at 10uM
COc1cccc(CN2CCNC(=O)C2CC(=O)NCc2cn3ccc(C)cc3n2)c1OC (centres unmarked)	23%
COc1ccc(-n2nnnc2CNC(=O)C2CC(=O)N(c3ccc(Cl)cc3)C2)cc1 (centres unmarked)	-45.9%
Cc1ccc(-c2nnn(CC(=O)N3CCCCC3)n2)o1	-14.3%
COc1cccc(C(C(=O)NC2CCCCC2)N(C(=O)CNC(=O)c2ccco2)c2cccnc2)c1 (centres unmarked)	-2.85%
c1ccc2c3c([nH]c2c1)CNCC3	-4.8%
Cc1cccc(C)c1NC(=O)CCCSc1nnc(-c2ccco2)n1-c1ccccc1	-30.4%
CCOc1ccc(CN2CCN(C(=O)c3cccc(F)c3)CC2)cc1.O=C(O)C(=O)O	-62%
O=C(N/N=C1\CCSC1)c1cc(Cl)ccc1O	-1.56%
COc1ccccc1-n1nnnc1SCC(=O)N(CC(C)C)C1CCS(=O)(=O)C1 (centres unmarked)	-18.1%
Cc1cc(NC(=O)CN2C(=O)NC(CC(C)C)C2=O)ccc1Br (centres unmarked)	1.99%
O=C(NCc1ccc2c(c1)OCO2)C1CCN(S(=O)(=O)c2ccc(Br)s2)CC1	-24%
COc1ccc(CC(=O)Nc2ccc(S(=O)(=O)Nc3onc(C)c3C)cc2)cc1OC	20.9%
Br.FC(F)Oc1ccc(-c2csc(NNC3=NCCCCC3)n2)cc1	-47.5%
Cc1ccc(SCC(=O)OCC(=O)NCCc2ccccc2)cc1	3.67%
Cn1nc(C(=O)Nc2ccc(Br)cc2)cc1C(=O)Nc1ccc(Br)cc1	1.5%
CC(C)[C@H](NC(=O)NCc1ccc(F)cc1)C(=O)O	4.2%
CCOc1ccc(-c2csc3nc[nH]c(=O)c23)cc1	14.9%
Cc1ccc(NC(=O)COc2ccccc2)c(NC(=O)c2ccccc2C)c1	5.51%
CC1C(=O)N(Cc2ccccc2)c2ccccc2N1C(=O)c1ccccc1 (centres unmarked)	-10%
CCCc1nnc(SCC(=O)Nc2ccccc2Cl)n1CC1CCCO1 (centres unmarked)	1.13%
Cc1nc(-c2ccc(F)cc2)c(CC(=O)N(C)CC(=O)Nc2ccc(Br)cc2C)s1	63.8%
Cl.c1cc2c(cc1C1CCCCC1)c1c3n2CCCNC3CCC1 (centres unmarked)	-9.4%
O=c1oc2ccccc2c(O)c1/C=N/c1ccccn1	12.7%

Compound	hERG current change (%, negative = inhibition) at 10uM
Cn1c(SCc2cccc(Br)c2)nc2ccccc2c1=O	19.9%
CCN(CC)c1ccc(NC(=O)COC(=O)c2ccc3ccccc3n2)cc1	-11.6%
COc1ccc(CNC(=O)CSCc2c(F)cccc2Cl)cc1	-12.1%
C=Cc1cccc(NC(=O)COc2ccccc2)c1	-3.28%
C=CCOC(=O)C1=C[C@@H](c2ccc(Br)cc2)[C@H](CCCO)[C@@H](OCC)O1	-22.6%
O=C(OC1CCCCC1=O)c1cccc(S(=O)(=O)N2CCCCC2)c1 (centres unmarked)	-14%
C=CC(COCc1ccccc1)N(C(=O)OC(C)(C)C)S(=O)(=O)c1ccccc1Br (centres unmarked)	5.94%
CCOC(=O)N1CCC(NC(=O)CCC(=O)N2CCOc3ccc(C)cc32)CC1	2.22%
COc1cccc(CNC(=O)CCS(=O)(=O)c2cccs2)c1	-41.1%
COC(=O)C1CCN(C(=O)c2cc3c(=O)n4cccc(C)c4nc3n2Cc2ccccc2)CC1	13.2%
Cc1ccc(CNC(=O)Cc2ccc(-n3c(=O)[nH]c4ccsc4c3=O)cc2)cc1	3.2%
CC(C(=O)Nc1ccc2c(c1)OCCO2)N(C)Cc1c(F)cccc1Cl (centres unmarked)	-4.03%
COc1ccc(NC(=O)CSC2=NC(=O)CC(C)=N2)cc1	15.1%
O=C(CNC(=S)NC(=O)c1ccc(F)cc1)c1ccccc1	5.25%
CCC(C)Oc1ccc(C(=O)Nc2ccc(CN3CCOCC3)cc2)cc1 (centres unmarked)	-27.2%
CCN1C(=O)/C(=C\N2CCN(C(=O)c3ccco3)CC2)SC1=S	1.87%
COc1ccc(-c2nc(CNS(=O)(=O)c3cc(OC)ccc3OC)cs2)cc1	-16.5%
CCn1c(=O)c2c3c(sc2n2cnnc12)CCC3	20%
Cc1cc(=O)n2cc(-c3ccccc3)nc2[nH]1	-4.94%
Cc1ccc(S(=O)(=O)N2CCN(C(=O)CN3CCc4ccccc4C3)CC2)cc1.O=C(O)C(=O)O	-25.7%

— paper PMC4336329 (PLoS ONE, 2015)
